Source: PMC4165372, “Nutritional status modulates box C/D snoRNP biogenesis by regulated subcellular relocalization of the R2TP complex” (Genome Biology, 2014)
No constants are given. Whether binding was seen depends on the method and setting. Binding seen in cells or lysates may run through a third protein. Some results given as binding are weak or reduced against the parent protein; the word gives no strength. Sequences can lack the tags named with a protein. Each block holds one binder with its values, some of them ahead of it.

Columns and labels:
[1] = biological target: T1, Nop1-FLAG (S. cerevisiae) (UniProt P15646); test: co-IP; FLAG pulldown: anti-FLAG (M2) beads on soluble lysate of endogenously C-terminal 3xFLAG-tagged yeast strains, log phase; buffer H with 0.1 M KCl, washes with 0.3 or 0.5 M KCl, FLAG peptide elution; Western blot or silver stain; also lysate treated with RNase A or DNase I, pih1Δ or tah1Δ background, rapamycin, Nup53 or Nup53-CΔ overexpression, bead-bound Nop58-FLAG complex with or without 4 mM ATP
T1 sequence: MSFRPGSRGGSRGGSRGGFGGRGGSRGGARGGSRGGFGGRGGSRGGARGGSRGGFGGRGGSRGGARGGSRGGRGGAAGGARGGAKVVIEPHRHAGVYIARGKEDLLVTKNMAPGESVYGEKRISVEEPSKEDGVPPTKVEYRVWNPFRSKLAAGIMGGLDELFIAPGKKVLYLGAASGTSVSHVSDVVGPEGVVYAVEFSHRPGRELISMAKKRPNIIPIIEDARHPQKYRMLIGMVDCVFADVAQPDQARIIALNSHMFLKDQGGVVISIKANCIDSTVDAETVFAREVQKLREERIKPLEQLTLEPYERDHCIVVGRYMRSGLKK

[2] = biological target: T2, Nop56-FLAG (S. cerevisiae) (UniProt Q12460); test: as above
T2 sequence: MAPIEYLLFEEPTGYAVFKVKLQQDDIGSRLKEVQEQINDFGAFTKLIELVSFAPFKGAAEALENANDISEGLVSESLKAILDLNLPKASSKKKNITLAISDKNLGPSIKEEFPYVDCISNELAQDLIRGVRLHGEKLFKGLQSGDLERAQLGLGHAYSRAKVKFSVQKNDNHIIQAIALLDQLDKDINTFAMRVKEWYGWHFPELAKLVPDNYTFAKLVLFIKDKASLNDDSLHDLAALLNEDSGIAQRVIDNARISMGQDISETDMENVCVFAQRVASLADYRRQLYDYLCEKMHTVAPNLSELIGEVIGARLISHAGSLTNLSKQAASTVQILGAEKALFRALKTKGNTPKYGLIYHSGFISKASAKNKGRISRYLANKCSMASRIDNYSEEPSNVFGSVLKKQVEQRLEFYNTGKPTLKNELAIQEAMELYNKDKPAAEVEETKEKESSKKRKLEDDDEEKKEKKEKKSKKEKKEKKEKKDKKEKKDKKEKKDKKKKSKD

[3] = biological target: T3, Snu13-FLAG (S. cerevisiae) (UniProt P39990); test: as above
T3 sequence: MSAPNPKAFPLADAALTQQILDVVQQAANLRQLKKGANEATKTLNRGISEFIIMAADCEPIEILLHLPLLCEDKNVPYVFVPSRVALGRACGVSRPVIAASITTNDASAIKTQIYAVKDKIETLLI

[4] = biological target: T4, Nop58(1–511)-FLAG (S. cerevisiae), Q12499; test: co-IP; FLAG pulldown: anti-FLAG beads on lysate of yeast overexpressing p416GAL Nop58-FLAG subdomain constructs after galactose induction (6 h, 30°C); Western blot; settings: remark: other sources report otherwise
T4 chain: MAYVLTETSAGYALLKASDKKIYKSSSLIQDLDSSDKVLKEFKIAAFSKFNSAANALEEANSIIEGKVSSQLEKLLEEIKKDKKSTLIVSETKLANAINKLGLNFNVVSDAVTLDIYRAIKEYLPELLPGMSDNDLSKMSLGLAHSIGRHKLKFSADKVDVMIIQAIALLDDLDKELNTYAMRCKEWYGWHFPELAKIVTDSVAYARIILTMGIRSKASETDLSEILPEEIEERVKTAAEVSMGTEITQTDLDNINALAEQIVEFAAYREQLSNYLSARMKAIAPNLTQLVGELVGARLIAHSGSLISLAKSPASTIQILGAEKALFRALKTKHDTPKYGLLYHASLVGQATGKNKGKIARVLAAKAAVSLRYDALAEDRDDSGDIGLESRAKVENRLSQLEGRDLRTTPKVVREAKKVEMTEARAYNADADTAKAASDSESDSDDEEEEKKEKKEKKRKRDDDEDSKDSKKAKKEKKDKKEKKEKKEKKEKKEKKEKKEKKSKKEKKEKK

[5] = biological target: T5, Nop58-FLAG (S. cerevisiae), Q12499; test: co-IP; FLAG pulldown: anti-FLAG (M2) beads on soluble lysate of endogenously C-terminal 3xFLAG-tagged yeast strains, log phase; buffer H with 0.1 M KCl, washes with 0.3 or 0.5 M KCl, FLAG peptide elution; Western blot or silver stain; also lysate treated with RNase A or DNase I, pih1Δ or tah1Δ background, rapamycin, Nup53 or Nup53-CΔ overexpression, bead-bound Nop58-FLAG complex with or without 4 mM ATP; settings: remark: other sources report otherwise
T5 chain: T4 chain

binding [1]: no binding
binding [2]: no binding
binding [3]: no binding
B1: Tah1 (protein, UniProt P25638 1-111)
chain: MSQFEKQKEQGNSLFKQGLYREAVHCYDQLITAQPQNPVGYSNKAMALIKLGEYTQAIQMCQQGLRYTSTAEHVAIRSKLQYRLELAQGAVGSVQIPVVEVDELPEGYDRS

binding [4]: binds
binding [5]: binds
B2: Nop1, P15646 1-327 (protein)
chain: T1 sequence
